Experimental data published in PubChem BioAssay AID1159614 (National Center for Advancing Translational Sciences (NCATS), 2016).
The campaign covered roughly 45,000 compounds. About 65 (0.1%) were called active. The call rests on the fitted dose curve; in most records, active means well fitted activation curve with a large enough effect; inconclusive means small, poorly fitted or top-dose-only effect; inactive means no such curve, though single readings can be large or run the other way. Some of the results follow.

What follows are molecules tested against Galactocerebrosidase (Homo sapiens) (UniProt P54803) (assay: A Novel Cell-Based Assay to Identify Small Molecules for B -Galactocerebrosidase). Details: 145M-Twi-hGALC-G270D cells (Twitcher mouse brain line with human GALC G270D), HMU-beta-Gal fluorescence, 48 h; series mostly up to 57.5 µM; activation: at the top concentration.
How it was run: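 Fluorogenic HMU-b-Gal hydrolysis (0.1 mM final, pH 5.2 citrate-phosphate with 1 mg/mL sodium taurocholate; carbonate stop buffer) measures mutant GALC activity after compound treatment of live 145M-Twi Twitcher brain cells stably carrying human GALC-G270D, with wild-type GALC line alongside; activation sought.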
Further: 0% is about no effect; nearly all actives have a fitted effect of over 65% in size.

UniProt P54803, sequence (P54803 whole entry, looked up): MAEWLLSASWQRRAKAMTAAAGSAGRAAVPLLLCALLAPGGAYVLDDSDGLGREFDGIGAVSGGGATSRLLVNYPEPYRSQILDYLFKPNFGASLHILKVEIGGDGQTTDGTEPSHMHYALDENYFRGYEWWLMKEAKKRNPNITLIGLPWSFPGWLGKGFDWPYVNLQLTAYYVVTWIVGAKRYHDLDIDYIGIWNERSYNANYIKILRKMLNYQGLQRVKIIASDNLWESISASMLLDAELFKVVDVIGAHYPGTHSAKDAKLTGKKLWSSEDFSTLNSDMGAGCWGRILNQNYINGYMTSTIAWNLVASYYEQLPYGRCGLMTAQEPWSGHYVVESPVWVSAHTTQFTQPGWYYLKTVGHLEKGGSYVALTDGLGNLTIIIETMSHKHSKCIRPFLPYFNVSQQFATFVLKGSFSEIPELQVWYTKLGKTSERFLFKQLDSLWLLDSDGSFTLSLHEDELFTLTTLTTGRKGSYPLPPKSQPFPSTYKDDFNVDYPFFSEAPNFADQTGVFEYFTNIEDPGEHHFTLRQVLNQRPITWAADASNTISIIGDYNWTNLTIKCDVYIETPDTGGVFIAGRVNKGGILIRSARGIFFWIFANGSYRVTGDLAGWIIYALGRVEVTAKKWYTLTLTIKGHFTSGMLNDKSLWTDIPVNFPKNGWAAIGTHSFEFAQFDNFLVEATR

activation, inactive:
Cc1ccccc1Nc1nnc(-c2ccc(C)c(S(=O)(=O)N3CCOCC3)c2)c2ccccc12 -17.7%, COc1ccc(OC)c(NC(=O)Cn2cnc3c(oc4ccccc43)c2=O)c1 -4.92%, Cc1cccc(N2CCN(C(=O)C3CCN(S(=O)(=O)c4cccs4)CC3)CC2)c1C -25.8%, COc1ccc(CN2COc3ccc4c(-c5ccccc5)cc(=O)oc4c3C2)cc1 -25.3%, CC1=C(C(=O)Nc2ccc(C)cc2C)C(c2ccc(Cl)cc2)n2nc(C(=O)OC(C)C)nc2N1 (configuration not stated) -12.3%, CCc1ccc(NC(=O)c2cc3sc(Cl)cc3n2C)cc1 -6.19%, O=C(Cn1cnc(S(=O)(=O)N2CCCC2)c1)Nc1ccc(OC(F)(F)F)cc1 -25.7%, Cc1ccc(C)c(CN2C(=O)c3ccccc3S(=O)c3ccc(C(=O)NCc4ccco4)cc32)c1 (configuration not stated) -17%, Cc1ccc(NC(=O)Cn2c(=O)n(CCc3ccccc3)c(=O)c3c4c(sc32)CCCC4)cc1C -3.17%, Cc1cc(C)c(S(=O)(=O)Nc2cccc(-c3cn4ccccc4n3)c2)c(C)c1 -7.18%, Cc1ccc(NC(=O)Cn2cc(S(=O)(=O)NC(C)C)c(S(=O)(=O)NC(C)C)c2)cc1Cl -10.8%, COc1ccc(Cn2ccc3nc(C)c(C(=O)Nc4ccc(OC)cc4OC)cc3c2=O)cc1 -25.8%, O=C1Nc2cc(Cl)ccc2Oc2cc(Oc3ccccc3)ccc21 -6.98%, Cc1c(Cl)cccc1NC(=O)CSc1cc(-c2ccccc2)ncn1 -2.15%, Cc1ccc(NC(=O)C2CCN(c3nn4c(=O)cc(C)nc4s3)CC2)cc1 -13%, O=C(/C=C/c1ccco1)Nc1ccc(Cl)c(-c2nc3cc(Cl)ccc3o2)c1 -16.6%, COc1cccc(NC(=O)c2ccc(CNS(=O)(=O)c3ccc4c(c3)C(C)(C)C(=O)N4C)cc2)c1 -10.5%, Cc1ccc(-c2nnc(Nc3ccc(O)cc3)c3ccccc23)cc1S(=O)(=O)NCC1CCCO1 (configuration not stated) -9.24%, CC(C)n1c(=O)c2oc3ccccc3c2n(Cc2ccccc2F)c1=O -8.62%, COC(=O)c1c(SCC(=O)Nc2ccccc2OC)[nH]c2ccccc2c1=O -11.8%, Cc1cc2ccccc2n1-c1ccc(C(=O)N2CCC(C(=O)NCc3ccc(F)cc3)CC2)s1 -16%, COc1ccc(Oc2nc3c(c(=O)n(Cc4ccccc4Cl)c(=O)n3C)n2C)cc1 -21.9%, O=C(C1CC1)N1CCc2cc(Br)cc(S(=O)(=O)N3CCN(c4ccccc4F)CC3)c21 -2.27%, COc1ccc(CNC(=O)Cn2ccc3cc(S(=O)(=O)N4CCCCCC4)ccc32)c(OC)c1 -7.26%, Cc1ccc(N2CC(NC(=O)/C=C\c3ccc4c(c3)OCO4)CC2=O)cc1 (configuration not stated) -7.49%, Cc1ccc(CCNC(=O)c2ccc(CSCc3ccc(C)cc3)o2)cc1 -26.4%, CCOC(=O)c1ccc(NC(=O)c2cc3c(n(-c4ccc(C)cc4)c2=O)CC(C)(C)CC3=O)cc1 18%, Cn1c(C(=O)N2CCC(C(=O)NCCc3ccc(S(N)(=O)=O)cc3)CC2)cc2sccc21 -4.34%, COc1ccc(-c2nc3scc(CCNS(=O)(=O)c4cccc(C(C)=O)c4)n3n2)cc1 -1.86%, O=c1cc(CO)occ1O -14.7%, CN(C)c1cccc(C(=O)Nc2ccc(-c3nc4ccccc4s3)cc2)c1 -21.4%, CC1=C(c2ccc(Cl)cc2)S(=O)(=O)NC1=NCc1ccc(C)cc1 -10.9%, O=C(CSc1nc2c(oc3ccccc32)c(=O)[nH]1)Nc1cccc(Cl)c1 6.74%, CCOC(=O)c1cccc(NC(=O)CCNS(=O)(=O)c2cccc3nonc23)c1 -12.3%, CC12CN3CC(C)(CN(C1)C3c1ccc(OCc3ccccc3)cc1)C2=O (configuration not stated) -5.24%, CCc1ccc(NC(=O)Cn2c(=O)ccc3cc(S(=O)(=O)N4CCCC4)ccc32)cc1 -11.4%, Cc1ccc(NC(=O)CSc2nnc(C)c(=O)[nH]2)cc1 4.16%, Cc1cccc(-n2ncc3c(Nc4c(C)cc(C)cc4C)ncnc32)c1 -15.8%, CCOCCCn1c(=N)c(C(=O)NC2CCCC2)cc2c(=O)n3cccc(C)c3nc21 -6.41%, Cc1nnc2c3ccccc3nc(N3CCN(c4cccc(Cl)c4)CC3)n12 0.995%, Oc1ccc(Nc2nc(-c3ccc(Cl)cc3)nc3ccccc23)cc1 -13.7%, Cc1noc(Cn2c(=O)c3ccccc3n(CC(=O)Nc3ccccc3C(F)(F)F)c2=O)n1 -13%, CCOC(=O)c1cccc(Nc2cc(C)nc(C)n2)c1 -16.8%, CCc1ccc(NC(=O)c2oc3c(c2C)-c2[nH]ncc2CC3)cc1 -8.98%, COc1ccccc1CNC(=O)CN1C(=O)CCCc2ccccc21 -12.6%, CCCCOc1ccc(C2c3c(oc4ccccc4c3=O)C(=O)N2c2nc(C)c(C(=O)OCC)s2)cc1OC (configuration not stated) -15.1%, CCc1ccc(NC(=O)c2ccc3c(c2)c(C)c(C)n3Cc2ccccc2)cc1 4.95%, O=C(Nc1ccccc1Br)N1CCN2CCCCC2C1 (configuration not stated) 2.87%, CCc1ccc(NC(=O)Cn2nnc(C(=O)Nc3cc(C)ccc3OC)c2N)cc1 14.6%, CC(=O)c1ccc(NC(=O)c2ccc(CN3C(=O)CCn4nc(C)cc43)cc2)cc1 -13.9%, COc1ccc(S(=O)(=O)NCCc2cn3ccsc3n2)cc1 -2.48%, Cc1ccc(S(=O)(=O)Nc2ccc3c(c2)c(C(=O)OC(C)C)c(C)n3S(=O)(=O)c2ccc(C)cc2)cc1 -20.1%, Cc1ccc(CCNC(=O)CN2CCN(Cc3ccc(Cl)cc3)C2=O)cc1 -11.7%, O=C(CCC1N=C2c3ccccc3N=C(SCc3cccc(F)c3)N2C1=O)NCc1ccc(F)cc1 (configuration not stated) -23.3%, O=S(=O)(Nc1ccc(Br)cc1)c1ccc2nc(-c3ccccc3)[nH]c2c1 -11.6%, CCN(CC)CCNC(=O)Cn1ncc2c3ccccc3n(Cc3ccccc3C)c2c1=O -14.8%, COc1ccc(CCNC(=O)Cn2ccc3cc(S(=O)(=O)N4CCCCC4)ccc32)cc1OC -7.59%, COC(=O)c1ccccc1NC(=O)c1cc(=O)c2ccc(C)c(C)c2o1 -13%, Cn1nnnc1SCCCNCc1ccccc1OCc1ccccc1F -15.8%, COc1ccc(C(=O)c2cn(Cc3cccc(C)c3)c3cc4c(cc3c2=O)OCCO4)cc1OC -11.1%, CCc1ccc(NC(=O)CN2C(=O)CCSc3ccc(S(=O)(=O)N4CCCC4)cc32)cc1 0.72%, Cc1nn2c(=O)cc(COC(=O)c3ccc(F)cc3)nc2s1 -5.28%
